# Measurements from PubChem BioAssay AID2675 (National Center for Advancing Translational Sciences (NCATS), 2010).
# The whole screen tested about 280,000 compounds, of which about 100 (0.036%) were called active. The shares of active, inactive and inconclusive entries below differ from those in the screen. The call rests on the fitted dose curve; in most records, active means well fitted inhibition curve with a large enough effect in the signal ratio, with a control signal flat (not every such curve was filed as active); inconclusive means small, poorly fitted or top-dose-only effect, or effect the other way, or a change in a side signal; inactive means no such curve, though single readings can be large or run the other way; the % refers to the signal ratio. Potencies beside an inconclusive call are fits to weak or partial responses and may not hold up. “Side channel” marks fits to a control or component signal instead of the main read-out.
# Biological target: Muscleblind-like protein 1 (Homo sapiens) (UniProt Q9NR56)
# Assay: qHTS Assay for Inhibitors of MBNL1-poly(CUG) RNA binding
# Conditions: TR-FRET MBNL1-His/biotin-(CUG)12 binding, 665/545 ratio; series mostly up to 57.5 µM
# Procedure, shortened: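 Compounds (final 92 nM to 58 uM) are added to His-tagged MBNL1 and biotin-(CUG)12, then terbium anti-His antibody and streptavidin-XL665 (5 nM final). After 60 min at room temperature, the 665/545 nm ratio is read.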
# Potency means the concentration at half of the fitted maximal effect; tags describe the fitted curve by direction and shape or compound fluorescence and quenching.
# Chain of UniProt Q9NR56 (Q9NR56 whole entry, looked up): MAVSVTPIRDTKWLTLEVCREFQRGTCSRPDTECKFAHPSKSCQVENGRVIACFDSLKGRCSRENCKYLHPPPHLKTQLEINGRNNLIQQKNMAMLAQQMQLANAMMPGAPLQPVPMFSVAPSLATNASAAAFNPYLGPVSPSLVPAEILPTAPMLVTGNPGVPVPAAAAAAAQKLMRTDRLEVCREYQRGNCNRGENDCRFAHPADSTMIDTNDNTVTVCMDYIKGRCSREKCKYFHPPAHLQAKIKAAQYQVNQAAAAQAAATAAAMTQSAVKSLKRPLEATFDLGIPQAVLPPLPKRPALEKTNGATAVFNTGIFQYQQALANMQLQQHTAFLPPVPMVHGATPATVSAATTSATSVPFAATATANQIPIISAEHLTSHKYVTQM
row,SMILES,Potency
1,O=C(/C=C/c1ccc([N+](=O)[O-])cc1)NCc1ccccn1,"inconclusive: 3.98 µM [quencher, side channel, partial curve]"
2,Cc1nnc(SCC(=O)c2ccc([N+](=O)[O-])cc2)s1,"inconclusive: 10 µM [quencher, side channel, partial curve]"
3,Nc1nc(Br)c2ccccc2c1-c1ccccc1,inactive
4,COc1c(C(=O)N2CCCC2)ccc2ccccc12,"inconclusive: 0.794 µM [quencher, side channel, partial curve, poor fit]"
5,CC(Sc1cccc[n+]1[O-])C(=O)Nc1ccc([N+](=O)[O-])cc1Cl (centres undefined),"inconclusive: 14.1 µM [quencher, side channel, partial curve]"
6,CCOc1cccc(/C=C2\NC(=S)N(c3ccccc3)C2=O)c1O,"inconclusive: 28.2 µM [quencher, side channel, partial curve]"
7,COCCCNc1ccc([N+](=O)[O-])cc1C(=O)Nc1cccc(C)n1,"inconclusive: 15.8 µM [quencher, side channel, partial curve]"
8,Cc1ccc(C)c(NC(=O)CCn2cnnn2)c1,inactive
9,Cc1cc([N+](=O)[O-])ccc1NC(=O)CCC(=O)N1CCCC1,"inconclusive: 28.2 µM [quencher, side channel, single point]"
10,CCCNC(=O)Cc1cc(=O)[nH]c(=O)[nH]1,"inconclusive: 3.16 µM [fluorescent, side channel, full curve, poor fit]"
11,CC1(OC(=O)C2CCCC2)C(=O)C=C2C=C(c3ccsc3)N(Cc3ccco3)C=C2C1=O (centres undefined),"inconclusive: 17.8 µM [quencher, side channel, partial curve]"
12,CCOC(=O)C1=C(C)N(CCCC(=O)O)C(=O)NC1c1ccc([N+](=O)[O-])cc1 (centres undefined),"inconclusive: 31.6 µM [quencher, side channel, partial curve, poor fit]"
13,Nc1cc2sc(-c3ccc(C(=O)O)cc3)nc2cc1Cl,"inconclusive: 15.8 µM [quencher, side channel, single point]"
14,O=[N+]([O-])c1cccc(C2Nc3cccc4cccc(c34)N2)c1,"inconclusive: 22.4 µM [activator, single point]"
15,COc1cccc(NC(=O)CSc2nnc(-c3cc(C)n(-c4ccccc4)c3C)o2)c1,inactive
16,NC(N)=N/N=C/c1ccc(Cl)c([N+](=O)[O-])c1,"inconclusive: 15.8 µM [quencher, side channel, partial curve]"
17,CNC(=O)/C(C#N)=C/c1cn(CC(=O)NCc2ccco2)c2ccccc12,"inconclusive: 25.1 µM [quencher, single point]"
18,C=CCNc1nnc(SC2CC(=O)N(c3ccc(OC)cc3)C2=O)s1 (centres undefined),inactive
19,Cc1ccc2c(ccc(=S)n2C)c1,"inconclusive: 22.4 µM [quencher, side channel, partial curve]"
20,O=c1oc2ccccc2cc1-c1ccccc1,"inconclusive: 14.1 µM [quencher, side channel, partial curve]"

row,SMILES,Potency
1,CN(C)CCN1C(=O)C(=O)/C(=C(/O)c2ccc(S(=O)(=O)N3CCOCC3)cc2)C1c1ccccc1 (centres undefined),"inconclusive: 11.2 µM [quencher, side channel, partial curve]"
2,O=C(CN1CCN(c2ccc(F)cc2)CC1)c1ccc(O)cc1O,"inconclusive: 39.8 µM [quencher, side channel, single point]"
3,CCCn1c(=NC(=O)c2ccco2)c(C(=O)OCC)cc2c(=O)n3ccccc3nc21,"inconclusive: 11.2 µM [quencher, side channel, partial curve]"
4,COc1ccc(Nc2nnc(-c3ccc(O)cc3)c3ccccc23)cc1C(N)=O,"inconclusive: 31.6 µM [quencher, side channel, partial curve]"
5,N#Cc1cc([N+](=O)[O-])ccc1NC(=O)COC(=O)C12CC3CC(CC(C3)C1)C2,"inconclusive: 20 µM [quencher, side channel, partial curve]"
6,CC1CN/C(=C\C(=O)c2ccccc2)C(=O)N1 (centres undefined),"inconclusive: 15.8 µM [quencher, side channel, partial curve]"
7,CNc1cc([N+](=O)[O-])ccc1N/C=C/C(=O)c1cccs1,"inconclusive: 15.8 µM [quencher, side channel, partial curve]"
8,CN(Cc1cc(=O)n2ccsc2n1)c1ccccc1,"inconclusive: 0.0794 µM [fluorescent, side channel, full curve]"
9,COc1ccccc1NC(=O)c1ccccc1S(=O)(=O)c1ccccc1[N+](=O)[O-],"inconclusive: 20 µM [quencher, side channel, partial curve]"
10,CCOCCCNC(=S)NCCCNc1nc2c(C)cc(C)cc2cc1C#N,"inconclusive: 17.8 µM [quencher, side channel, single point]"
11,CN(C)/C=N/c1nc2nccc(-c3ccc(Cl)cc3)n2n1,"inconclusive: 25.1 µM [quencher, side channel, partial curve]"
12,CCOC(=O)c1[nH]c2ccc(F)cc2c1NC(=O)c1ccccc1C(=O)O,"inconclusive: 25.1 µM [quencher, side channel, single point]"
13,COc1ccccc1/C=C/C=N/NC(=O)c1ccc(=O)n(C)c1,"inconclusive: 20 µM [quencher, side channel, partial curve]"
14,C[C@]12CCC(=O)C=C1C=C[C@@H]1[C@@H]2CC[C@@]2(C)[C@H]1CC[C@@]21CCC(=O)O1,"inconclusive: 20 µM [quencher, side channel, partial curve]"
15,COc1ccccc1NC(=O)C1CCCN(S(=O)(=O)c2ccccc2)C1 (centres undefined),inactive
16,CC1(C(=O)N2CC3(CC(c4cccc([N+](=O)[O-])c4)=NO3)C[C@H]2C(=O)NCC(N)=O)CC1 (some centres undefined),"inconclusive: 12.6 µM [quencher, side channel, partial curve]"
17,COC(=O)c1cc(C)nc2c1C(=O)C(=O)C=C2N1CCOCC1,"inconclusive: 22.4 µM [quencher, side channel, single point]"
18,CSc1nnc(SCC2=NNC(=O)SC2)s1,"inconclusive: 28.2 µM [quencher, side channel, single point]"
19,CCOC(=O)CSc1nc(N)c(C#N)c(-c2cccs2)c1C#N,"inconclusive: 31.6 µM [fluorescent, side channel, single point]"
20,O=C(CCC(=O)N1CCN(c2ccc(O)cc2)CC1)c1cccs1,inactive

row,SMILES,Potency
1,CCC(CC)C(=O)OCC(=O)Nc1cc(OC)c([N+](=O)[O-])cc1C,"inconclusive: 39.8 µM [quencher, single point]"
2,O=c1oc2ccccc2nc1/C=C(O)/C=C\c1ccccc1,inactive
3,O=C(Cc1c[nH]c2ccccc12)N/N=C/c1cccc(F)c1,"inconclusive: 25.1 µM [quencher, side channel, single point]"
4,CC1=C(C(=O)NC2CCCC(C)C2C)C2(CCCCC2)OC1=O (centres undefined),inactive
5,COCCNC(=O)C(C)N1c2cccc3cccc(c23)S1(=O)=O (centres undefined),"inconclusive: 5.62 µM [quencher, side channel, full curve, poor fit]"
6,Nc1c(S(=O)(=O)c2cccs2)c2nc3ccccc3nc2n1CC1CCCO1 (centres undefined),inactive
7,FC(F)(F)c1cc(-c2ccco2)nc(NCCc2ccccc2)n1,inactive
8,CCCCN1C(=O)C2C(C(=O)Nc3cccc(OC)c3)C3C=CC2(O3)C1C(=O)NC1CCCCC1C (centres undefined),"inconclusive: 5.62 µM [quencher, side channel, full curve, poor fit]"
9,COc1cc2c(cc1OC)C(c1ccc([N+](=O)[O-])cc1)NC(=O)C2 (centres undefined),"inconclusive: 8.91 µM [quencher, side channel, partial curve]"
10,Cc1ccc2nc(NC(=O)C3CCN(S(=O)(=O)c4cccs4)CC3)sc2c1,inactive
11,NS(=O)(=O)c1ccc(Sc2ccccn2)c([N+](=O)[O-])c1,"inconclusive: 20 µM [quencher, side channel, partial curve]"
12,Cc1ccccc1NC(=O)CSc1nc(N)c(C#N)c(-c2cccs2)c1C#N,"inconclusive: 25.1 µM [fluorescent, side channel, partial curve]"
13,O=C(COC(=O)c1ccccc1)NC1CCCC1,inactive
14,COc1cccc2c1nc(C)c1cc(C)oc12,inactive
15,O=C(NN1C(=O)c2ccccc2NC1c1ccc([N+](=O)[O-])o1)c1ccc([N+](=O)[O-])cc1 (centres undefined),"inconclusive: 12.6 µM [quencher, side channel, partial curve]"
16,COC(=O)c1cc(Cl)c(NC(=O)/C=C/c2ccc(OC)c(OC)c2)cc1OC,"inconclusive: 39.8 µM [fluorescent, side channel, single point]"
17,Cc1c(CCOC(=O)c2cc([N+](=O)[O-])cc([N+](=O)[O-])c2)sc[n+]1CCCCS(=O)(=O)[O-],"inconclusive: 12.6 µM [quencher, side channel, partial curve]"
18,O=C(NCCN1CCCCCC1)C1CCCN1S(=O)(=O)c1cccc2nsnc12 (centres undefined),"inconclusive: 17.8 µM [quencher, side channel, partial curve]"
19,CC(C(=O)N1CCCCC1)n1ncn2cccc2c1=O (centres undefined),"inconclusive: 25.1 µM [quencher, side channel, partial curve]"
